In paper PMC9911399, “Two distinct binding modes provide the RNA-binding protein RbFox with extraordinary sequence specificity”:
Numbering of substitutions follows the chain as printed; changes in the protein carry UniProt numbers. The list shows a part of the results.

T1: RBFOX1 RRM RbFoxmut (Fox-RRM*) (Homo sapiens, UniProt Q9NWB1 109-208, R118D;E147R;N151S;E152T)
T1 sequence: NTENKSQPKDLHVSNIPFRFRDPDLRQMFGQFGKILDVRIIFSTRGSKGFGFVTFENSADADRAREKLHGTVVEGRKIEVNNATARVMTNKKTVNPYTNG

B1: CGUUCGG (DNA:RNA)
RNA: GGGAGACCGGAAUUCAGAUUGUCCCGUUCGGUUAAAUCCCGUCGUAGCCACCA
DNA 1: CAATCTGAATTCCGGTCTCCC
DNA 2: TGGTGGCTACGACGGGATT
B2: GUGGGAU (DNA:RNA)
RNA: GGGAGACCGGAAUUCAGAUUGUCCGUGGGAUUUAAAUCCCGUCGUAGCCACCA
DNA 1: CAATCTGAATTCCGGTCTCCC
DNA 2: TGGTGGCTACGACGGGATT
B3: UCUUUUC (DNA:RNA)
RNA: B1 RNA with C25U, G26C, C29U, G30U, G31C
DNA 1: CAATCTGAATTCCGGTCTCCC
DNA 2: TGGTGGCTACGACGGGATT
B4: UAAAGAG (DNA:RNA)
RNA: B2 RNA with G25U, U26A, G27A, G28A, U31G
DNA 1: CAATCTGAATTCCGGTCTCCC
DNA 2: TGGTGGCTACGACGGGATT
B5: UUAUACA (DNA:RNA)
RNA: B1 RNA with C25U, G26U, U27A, C29A, G30C, G31A
DNA 1: CAATCTGAATTCCGGTCTCCC
DNA 2: TGGTGGCTACGACGGGATT
B6: CCAGUUU (DNA:RNA)
RNA: B2 RNA with G25C, U26C, G27A, G29U, A30U
DNA 1: CAATCTGAATTCCGGTCTCCC
DNA 2: TGGTGGCTACGACGGGATT
B7: AAAGCAA (DNA:RNA)
RNA: B2 RNA with G25A, U26A, G27A, G29C, U31A
DNA 1: CAATCTGAATTCCGGTCTCCC
DNA 2: TGGTGGCTACGACGGGATT
B8: GUAUUUU (DNA:RNA)
RNA: B2 RNA with G27A, G28U, G29U, A30U
DNA 1: CAATCTGAATTCCGGTCTCCC
DNA 2: TGGTGGCTACGACGGGATT
B9: GUUUCUG (DNA:RNA)
RNA: B1 RNA with C25G, G26U, G30U
DNA 1: CAATCTGAATTCCGGTCTCCC
DNA 2: TGGTGGCTACGACGGGATT
B10: UUGAUAU (DNA:RNA)
RNA: B2 RNA with G25U, G28A, G29U
DNA 1: CAATCTGAATTCCGGTCTCCC
DNA 2: TGGTGGCTACGACGGGATT
B11: GGCGCAC (DNA:RNA)
RNA: B2 RNA with U26G, G27C, G29C, U31C
DNA 1: CAATCTGAATTCCGGTCTCCC
DNA 2: TGGTGGCTACGACGGGATT
B12: ACCGCGG (DNA:RNA)
RNA: B1 RNA with C25A, G26C, U27C, U28G
DNA 1: CAATCTGAATTCCGGTCTCCC
DNA 2: TGGTGGCTACGACGGGATT
B13: GUAUCGU (DNA:RNA)
RNA: B1 RNA with C25G, G26U, U27A, G31U
DNA 1: CAATCTGAATTCCGGTCTCCC
DNA 2: TGGTGGCTACGACGGGATT
B14: GCCUUAA (DNA:RNA)
RNA: B2 RNA with U26C, G27C, G28U, G29U, U31A
DNA 1: CAATCTGAATTCCGGTCTCCC
DNA 2: TGGTGGCTACGACGGGATT
B15: UGGCGUA (DNA:RNA)
RNA: B2 RNA with G25U, U26G, G28C, A30U, U31A
DNA 1: CAATCTGAATTCCGGTCTCCC
DNA 2: TGGTGGCTACGACGGGATT
B16: UGUUUGG (DNA:RNA)
RNA: B1 RNA with C25U, C29U
DNA 1: CAATCTGAATTCCGGTCTCCC
DNA 2: TGGTGGCTACGACGGGATT
B17: UCAAAUG (DNA:RNA)
RNA: B1 RNA with C25U, G26C, U27A, U28A, C29A, G30U
DNA 1: CAATCTGAATTCCGGTCTCCC
DNA 2: TGGTGGCTACGACGGGATT
B18: AGUGGUG (DNA:RNA)
RNA: B1 RNA with C25A, U28G, C29G, G30U
DNA 1: CAATCTGAATTCCGGTCTCCC
DNA 2: TGGTGGCTACGACGGGATT
B19: AUAUAUC (DNA:RNA)
RNA: B1 RNA with C25A, G26U, U27A, C29A, G30U, G31C
DNA 1: CAATCTGAATTCCGGTCTCCC
DNA 2: TGGTGGCTACGACGGGATT
B20: UCUUUGU (DNA:RNA)
RNA: B1 RNA with C25U, G26C, C29U, G31U
DNA 1: CAATCTGAATTCCGGTCTCCC
DNA 2: TGGTGGCTACGACGGGATT
B21: CCUAUAC (DNA:RNA)
RNA: B1 RNA with G26C, U28A, C29U, G30A, G31C
DNA 1: CAATCTGAATTCCGGTCTCCC
DNA 2: TGGTGGCTACGACGGGATT
B22: ACAUAAU (DNA:RNA)
RNA: B2 RNA with G25A, U26C, G27A, G28U, G29A
DNA 1: CAATCTGAATTCCGGTCTCCC
DNA 2: TGGTGGCTACGACGGGATT
B23: GUUGCAG (DNA:RNA)
RNA: B2 RNA with G27U, G29C, U31G
DNA 1: CAATCTGAATTCCGGTCTCCC
DNA 2: TGGTGGCTACGACGGGATT
B24: AUCAAGU (DNA:RNA)
RNA: B2 RNA with G25A, G27C, G28A, G29A, A30G
DNA 1: CAATCTGAATTCCGGTCTCCC
DNA 2: TGGTGGCTACGACGGGATT
B25: AUACUCG (DNA:RNA)
RNA: B1 RNA with C25A, G26U, U27A, U28C, C29U, G30C
DNA 1: CAATCTGAATTCCGGTCTCCC
DNA 2: TGGTGGCTACGACGGGATT
B26: CUUCCUU (DNA:RNA)
RNA: B1 RNA with G26U, U28C, G30U, G31U
DNA 1: CAATCTGAATTCCGGTCTCCC
DNA 2: TGGTGGCTACGACGGGATT
B27: UUAAAUC (DNA:RNA)
RNA: B2 RNA with G25U, G27A, G28A, G29A, A30U, U31C
DNA 1: CAATCTGAATTCCGGTCTCCC
DNA 2: TGGTGGCTACGACGGGATT
B28: AGUUAGA (DNA:RNA)
RNA: B1 RNA with C25A, C29A, G31A
DNA 1: CAATCTGAATTCCGGTCTCCC
DNA 2: TGGTGGCTACGACGGGATT
B29: AGCUACA (DNA:RNA)
RNA: B1 RNA with C25A, U27C, C29A, G30C, G31A
DNA 1: CAATCTGAATTCCGGTCTCCC
DNA 2: TGGTGGCTACGACGGGATT
B30: GAAUUGU (DNA:RNA)
RNA: B1 RNA with C25G, G26A, U27A, C29U, G31U
DNA 1: CAATCTGAATTCCGGTCTCCC
DNA 2: TGGTGGCTACGACGGGATT
B31: UGAAAGU (DNA:RNA)
RNA: B1 RNA with C25U, U27A, U28A, C29A, G31U
DNA 1: CAATCTGAATTCCGGTCTCCC
DNA 2: TGGTGGCTACGACGGGATT

biological target: T1, RBFOX1 RRM RbFoxmut (Fox-RRM*); experiment: EMSA; HiTS-Eq, 1 nM pool, 10 min; buffer printed only for the single-RNA assays: 10 mM Tris pH 7.5, 150 mM NaCl, 3.4 mM EDTA, 0.001% NP-40, 30 C; conditions: tags: His6 N-terminal (pET28a); label: 5' 32P
Method in brief: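 Relative association constants, normalised to the cognate motif, were derived by comparing read counts of each RNA species with those of the control reaction. The RNA sequenced was the free fraction, separated by 8% native PAGE after a 10 min equilibration in 50 µL of 1 nM 5′-radiolabelled RNA (7 randomized nucleotides) with increasing concentrations of purified wild-type or mutant RbFox RRM.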

| Binder | binding signal |
| --- | --- |
| B1 | 0.115 KA relative to UGCAUGU |
| B2 | 0.103 KA relative to UGCAUGU |
| B3 | 0.0759 KA relative to UGCAUGU |
| B4 | 0.0748 KA relative to UGCAUGU |
| B5 | 0.0696 KA relative to UGCAUGU |
| B6 | 0.0755 KA relative to UGCAUGU |
| B7 | 0.0635 KA relative to UGCAUGU |
| B8 | 0.118 KA relative to UGCAUGU |
| B9 | 0.125 KA relative to UGCAUGU |
| B10 | 0.114 KA relative to UGCAUGU |
| B11 | 0.0609 KA relative to UGCAUGU |
| B12 | 0.0849 KA relative to UGCAUGU |
| B13 | 0.461 KA relative to UGCAUGU |
| B14 | 0.0981 KA relative to UGCAUGU |
| B15 | 0.155 KA relative to UGCAUGU |
| B16 | 0.302 KA relative to UGCAUGU |

| Binder | binding signal |
| --- | --- |
| B17 | 0.0986 KA relative to UGCAUGU |
| B18 | 0.171 KA relative to UGCAUGU |
| B19 | 0.0878 KA relative to UGCAUGU |
| B20 | 0.155 KA relative to UGCAUGU |
| B21 | 0.0911 KA relative to UGCAUGU |
| B22 | 0.0887 KA relative to UGCAUGU |
| B23 | 0.114 KA relative to UGCAUGU |
| B24 | 0.123 KA relative to UGCAUGU |
| B25 | 0.0982 KA relative to UGCAUGU |
| B26 | 0.052 KA relative to UGCAUGU |
| B27 | 0.0555 KA relative to UGCAUGU |
| B28 | 0.103 KA relative to UGCAUGU |
| B29 | 0.0799 KA relative to UGCAUGU |
| B30 | 0.192 KA relative to UGCAUGU |
| B31 | 0.072 KA relative to UGCAUGU |
